Source: PubChem BioAssay AID504332 (National Center for Advancing Translational Sciences (NCATS), 2011)
In all, about 350,000 compounds went through this assay and about 31,000 (8.9%) were called active. The shares of active, inactive and inconclusive entries below differ from those in the screen. The call rests on the fitted dose curve; in most records, active means well fitted inhibition curve with a large enough effect; inconclusive means small, poorly fitted or top-dose-only effect; inactive means no such curve, though single readings can be large or run the other way. Potencies beside an inconclusive call are fits to weak or partial responses and may not hold up. *1 amine or outer side, *2 acyl side, *3 side chain or, on linkers, in order; H or OH if unused. Where a SMILES comes first, the peptide text is derived from it. Bridges are numbered along the chain shown (N, C = ends). [ ]: non-standard residue; d: D form. ξ: configuration not given here. hSer(Ph(2-I,4-NO2,6-CO)) = O=C([C@H](CCOc1c(I)cc([N+](=O)[O-])cc1C(=O)[*:3])N[*:1])[*:2]; ξD = NC(CC(=O)O)C(=O)O
Further: nearly all actives have a fitted effect of over 75% in size.
On the % scale 0 is the no-effect control and ±100 the full control effect; potency means the concentration at half of the fitted maximal effect; tags describe the fitted curve by direction and shape.

The compounds below were run against Histone-lysine N-methyltransferase EHMT2 (Homo sapiens) (UniProt Q96KQ7) (assay: qHTS Assay for Inhibitors of Histone Lysine Methyltransferase G9a). Details: G9a H3K9 monomethylation, AlphaScreen, 2 h; activity, negative = inhibition: at 59 µM (top of the series) unless noted.
Sequence of UniProt Q96KQ7 (Q96KQ7 whole entry, looked up): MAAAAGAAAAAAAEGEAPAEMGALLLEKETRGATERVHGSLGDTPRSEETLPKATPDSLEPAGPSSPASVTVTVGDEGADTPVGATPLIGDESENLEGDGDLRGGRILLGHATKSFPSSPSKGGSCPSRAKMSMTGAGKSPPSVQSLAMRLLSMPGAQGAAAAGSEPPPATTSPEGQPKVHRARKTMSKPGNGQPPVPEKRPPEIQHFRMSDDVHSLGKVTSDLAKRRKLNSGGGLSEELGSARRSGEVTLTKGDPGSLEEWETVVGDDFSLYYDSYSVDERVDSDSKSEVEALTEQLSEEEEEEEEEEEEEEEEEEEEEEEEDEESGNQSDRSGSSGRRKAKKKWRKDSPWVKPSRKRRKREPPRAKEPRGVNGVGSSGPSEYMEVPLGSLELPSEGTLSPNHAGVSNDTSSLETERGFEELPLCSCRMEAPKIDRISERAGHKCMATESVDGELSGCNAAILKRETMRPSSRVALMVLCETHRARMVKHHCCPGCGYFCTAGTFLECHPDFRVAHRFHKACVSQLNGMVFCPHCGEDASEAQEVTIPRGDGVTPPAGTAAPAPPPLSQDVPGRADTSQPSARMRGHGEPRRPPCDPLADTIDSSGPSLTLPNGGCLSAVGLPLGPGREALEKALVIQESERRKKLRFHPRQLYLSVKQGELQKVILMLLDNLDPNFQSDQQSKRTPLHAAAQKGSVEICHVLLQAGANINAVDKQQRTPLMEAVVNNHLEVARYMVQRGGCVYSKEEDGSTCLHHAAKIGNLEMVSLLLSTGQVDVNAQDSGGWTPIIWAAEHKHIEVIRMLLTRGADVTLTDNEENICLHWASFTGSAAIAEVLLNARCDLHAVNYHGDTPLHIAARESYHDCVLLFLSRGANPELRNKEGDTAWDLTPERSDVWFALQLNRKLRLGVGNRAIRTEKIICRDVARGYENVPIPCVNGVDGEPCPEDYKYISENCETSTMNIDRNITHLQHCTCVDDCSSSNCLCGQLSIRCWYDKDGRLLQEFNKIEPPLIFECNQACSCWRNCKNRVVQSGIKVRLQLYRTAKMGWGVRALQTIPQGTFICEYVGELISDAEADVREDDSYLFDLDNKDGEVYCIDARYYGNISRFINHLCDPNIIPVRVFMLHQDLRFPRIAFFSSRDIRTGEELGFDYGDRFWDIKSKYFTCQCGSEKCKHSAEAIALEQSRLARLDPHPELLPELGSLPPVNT
Procedure, shortened: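 AlphaScreen detection with an anti-monomethyl H3K9 antibody quantified product after a 2 h room-temperature reaction containing 500 nM biotinylated H3K9 peptide, 20 µM SAM and 20 nM enzyme, which had been preincubated 15 min with compound.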
For `O=c1/c(=C/c2ccccn2)sc2n1CN(c1ccccc1)CN=2`, the Potency was active: 50.1 µM.
`COc1ccc(NC(=O)C#Cc2ccccc2)cc1OC` was tested, and the Potency was inconclusive: 100 µM [inhibitor, single point].
For `O=C(NCC(=O)N1CCN(c2ccccn2)CC1)c1ccc(Br)o1`, the Potency was “inactive”.
With `O=C(NCc1cccnc1)C1CC(c2ccccc2O)=NO1` (configuration not stated) the Potency was active: 25.1 µM.
In the case of `COc1ccc(NC(=O)C(=O)N/N=C/c2cc(C)n(-c3cccc(Cl)c3Cl)c2C)c(OC)c1`, the Potency is reported as inconclusive: 14.1 µM [inhibitor, partial curve, poor fit].
With `O=C(COC(=O)c1ccc2ncsc2c1)Nc1ncc(Cl)cc1Cl` the Potency was inconclusive: 35.5 µM [inhibitor, single point].
With `Cc1ccc(Nc2nnc(SCC3CCCCO3)s2)cc1` (configuration not stated) the Potency was active: 39.8 µM.
In the case of `COCCn1c(-c2ccc(OC)c(OC)c2)nc2ccccc21`, the Potency is reported as inconclusive: 50.1 µM [inhibitor, partial curve, poor fit].
`O=C(O)c1cccc(-n2cccc2C=C2C(=O)c3ccccc3C2=O)c1` was tested, and the Potency was active: 50.1 µM.
With `N#Cc1ccc(N2Cc3ccccc3C2=NC(=O)c2cccnc2Cl)cc1` the Potency was inconclusive: 35.5 µM [inhibitor, single point].
`CN(CC(=O)Nc1ccc(Cl)c(Cl)c1)C(=O)C1CCCC1` was tested, and the Potency was inconclusive: 5.01 µM [inhibitor, single point].
In the case of `CCOc1ccc(OCCC(=O)NNC(=O)c2cc(OC)c(OC)c(OC)c2)cc1`, the Potency is reported as active: 79.4 µM.
In the case of `O=C(CCl)N(c1ccccc1)C1CCCCC1`, the Potency is reported as inconclusive: 6.31 µM [inhibitor, full curve, poor fit].
`Cc1cc(=O)[nH]c2ccc(Cl)cc12` was tested, and the Potency was inconclusive: 22.4 µM [inhibitor, partial curve, poor fit].
`CCCC(=O)Nc1nnc(SCC(=O)NCc2ccc3c(c2)OCO3)s1` was tested, and the Potency was “inactive”.
With `O=C(C1=C(O)C(=O)N(CCN2CCOCC2)C1c1ccc([N+](=O)[O-])cc1)c1cccs1` (configuration not stated) the Potency was inconclusive: 89.1 µM [inhibitor, single point].
For `COc1ccc(C(=O)N2c3ccc(C)cc3C(C)(c3ccccc3)CC2(C)C)cc1` (configuration not stated), the Potency was “inactive”.
In the case of `COc1cc(Cl)c(C)cc1NC(=O)Cn1ncc2c3ccccc3n(Cc3ccccc3)c2c1=O`, the Potency is reported as “inactive”.
`CCOC(=O)c1c(-c2ccc(OC)cc2)oc2ccc(OCC(N)=O)cc12` was tested, and the Potency was inconclusive: 0.158 µM [inhibitor, partial curve, poor fit].
With `CN1CCC(OC(=O)c2cccc(Br)c2)CC1` the Potency was inconclusive: 35.5 µM [inhibitor, partial curve, poor fit].
In the case of `C[C@@H]1NC(=O)[C@H](CCCN=C(N)N)NC(=O)c2cc([N+](=O)[O-])cc(I)c2OCC[C@@H](C(=O)NC(CC(=O)O)C(N)=O)NC1=O` (some centres not stated) (RA[hSer(Ph(2-I,4-NO2,6-CO))][ξD]-NH2; lactam N-3), the Potency is reported as active: 39.8 µM.
For `Cc1cccc(C)c1NC(=O)CC(NCCc1ccccc1)C(=O)O` (configuration not stated), the Potency was inconclusive: 79.4 µM [inhibitor, partial curve, poor fit].
In the case of `c1ccc(Cc2nnc3sc(-c4cccnc4)nn23)cc1`, the Potency is reported as inconclusive: 3.16 µM [inhibitor, partial curve, poor fit].
`COc1cccc(C2CC(c3ccc(C)cc3)Nc3nc(N)nn32)c1` (configuration not stated) was tested, and the Potency was inconclusive: 44.7 µM [inhibitor, partial curve, poor fit].
With `Cc1ccc(N=Nc2c(C)[nH][nH]c2=O)c(C)c1` the Potency was inconclusive: 79.4 µM [inhibitor, single point].
With `O=C(N/N=C/c1ccc([N+](=O)[O-])s1)c1cccc(Br)c1` the Potency was inconclusive: 39.8 µM [inhibitor, single point].
For `Cc1[nH]c2ccccc2c1-c1csc(NC(=O)CN2CCOCC2)n1`, the Potency was active: 35.5 µM.
With `Cc1ccc(S(=O)(=O)Nc2ccc(Cl)cc2)cc1NC(=O)Cn1cnc2c1c(=O)n(C)c(=O)n2C` the Potency was “inactive”.
With `CC(C)c1ccc(OCC(O)CN2CCN(c3ccc(F)cc3)CC2)cc1` (configuration not stated) the Potency was active: 10 µM.
In the case of `Cn1cccc1C(=O)N1CCC2(CC1)CCN(c1ccncc1)CC2`, the activity, negative = inhibition is reported as inactive: -0.519% [at 12.7 µM].
`Cc1c(CC(=O)NCCCC(=O)O)c(=O)oc2cc3occ(-c4ccccc4)c3cc12` was tested, and the Potency was “inactive”.
`CCc1cc2ccccc2nc1SCC(=O)Nc1cc(OC)c(OC)cc1C(=O)O` was tested, and the Potency was inconclusive: 12.6 µM [inhibitor, partial curve, poor fit].
For `C#CCOCCOCCOCCNc1nc(N2CCN(C(=O)CCCCCCCCCCNC(=O)[C@@H](CCSC)n3cc(CCO)nn3)CC2)nc(N2CCN(C(=O)CCCCCCCCCCNC(=O)[C@@H]([C@H](C)O)n3cc(C)nn3)CC2)n1`, the activity, negative = inhibition was inactive: -3.84% [at 2.33 µM].
In the case of `COC(=O)N/N=C/c1cc(C)n(-c2ccc(F)cc2)c1C`, the Potency is reported as inconclusive: 89.1 µM [inhibitor, single point].
In the case of `CC(=O)Nc1ccc(/C(C)=N/NS(=O)(=O)c2ccc(C)cc2)cc1`, the Potency is reported as inconclusive: 44.7 µM [inhibitor, partial curve, poor fit].
For `Cc1ccc2cc(CN(Cc3ccc4c(c3)OCO4)Cc3nnnn3Cc3ccco3)c(=O)[nH]c2c1C`, the Potency was active: 11.2 µM.
`CCOc1cccc(C2C(C(=O)c3cccs3)=C(O)C(=O)N2Cc2cccnc2)c1` (configuration not stated) was tested, and the Potency was active: 56.2 µM.
`O=C(NC(=S)Nc1ccccn1)c1cccc([N+](=O)[O-])c1` was tested, and the Potency was inconclusive: 89.1 µM [inhibitor, single point].
`CCc1cccc(C)c1Nc1c(-c2cccc(O)c2)nc2nc(C)cc(C)n12` was tested, and the Potency was inconclusive: 17.8 µM [inhibitor, single point].
For `CCOC(=O)c1cnc(N2CCN(C(=O)OCC)CC2)[nH]c1=O`, the Potency was inconclusive: 50.1 µM [inhibitor, partial curve].
For `Nn1c(COc2ccccc2)nnc1SCC(=O)O`, the activity, negative = inhibition was inconclusive: -58.2% [inhibitor].
`NC(=O)CC1NC(=O)c2cc([N+](=O)[O-])cc(I)c2OCCC(C(N)=O)NC(=O)[C@@H]2CCCN2C1=O` (some centres not stated) was tested, and the Potency was active: 79.4 µM.
With `CCc1cc(C(=O)N2CCN(S(=O)(=O)c3ccccc3F)CC2)sc1C` the activity, negative = inhibition was inactive: -4.59% [at 2.33 µM].
With `COc1ccc(-c2nc(SCC(=O)N3CCCCC3C)n[nH]2)cc1` (configuration not stated) the Potency was “inactive”.
For `O=[N+]([O-])c1ccc(N2CCN(C(=S)NC3CCCCC3)CC2)cc1`, the Potency was “inactive”.
`COc1cc2c(N3CCOCC3)cc(O)c(CC(=O)Nc3ccccc3)c2cc1OC` was tested, and the Potency was inconclusive: 22.4 µM [inhibitor, single point].
In the case of `CCN(CC)c1ccc(/C=N/NC(=O)Nc2nonc2N)cc1`, the Potency is reported as inconclusive: 17.8 µM [inhibitor, partial curve, poor fit].
In the case of `CCOC(=O)C1=C(C)NC(C)=C(C(=O)OCC)C1c1cc(N)ccc1OC(F)F`, the Potency is reported as inconclusive: 22.4 µM [inhibitor, partial curve, poor fit].
With `COc1ccc(C2CC(O)(C(C)(C)O)NO2)cc1` (configuration not stated) the Potency was inconclusive: 1.12 µM [inhibitor, full curve].
For `CS(=O)(=O)c1nc(-c2ccccc2)cc(C(F)(F)F)n1`, the Potency was inconclusive: 22.4 µM [inhibitor, single point].
In the case of `Cc1ccc(C(=O)NCc2ccco2)cc1S(=O)(=O)Nc1cccc(Cl)c1`, the Potency is reported as inconclusive: 39.8 µM [inhibitor, single point].
With `COc1cc(CNC2CCCCCC2)cc(OC)c1` the Potency was inconclusive: 56.2 µM [inhibitor, single point].
With `O=C(NCCN1CCNCC1)c1ccccn1` the Potency was active: 44.7 µM.
In the case of `Cc1cc(C(=O)CSc2nnc(-c3cccnc3)n2-c2ccccc2F)c(C)n1CC1CCCO1` (configuration not stated), the Potency is reported as inconclusive: 100 µM [inhibitor, single point].
For `OC(CC1CC12c1ccccc1-c1ncccc12)(c1ccccc1)c1ccccc1` (configuration not stated), the Potency was inconclusive: 22.4 µM [inhibitor, partial curve, poor fit].
In the case of `Cc1sc2nc(CN3CCC(C)CC3)nc(Cl)c2c1C`, the Potency is reported as inconclusive: 39.8 µM [inhibitor, single point].
With `CCN(CC)CCCNC(=O)CN1N=C(c2ccccc2)CCC1=O` the Potency was inconclusive: 39.8 µM [inhibitor, single point].
For `Cc1ccc(C(C)CCN2CCC(n3nccc3NC(=O)c3ccccc3)CC2)o1` (configuration not stated), the Potency was active: 28.2 µM.
In the case of `Cc1cc(F)ccc1NC(=O)Cn1c(=O)ccc2cc(S(=O)(=O)N3CCC(C)CC3)ccc21`, the Potency is reported as “inactive”.
For `COc1ccc(C2C(C#N)=C(N)Oc3cc(O)ccc32)cc1Cl` (configuration not stated), the Potency was inconclusive: 89.1 µM [inhibitor, single point].
For `O=C(O)c1cccc(N2C(=O)c3cc4cccc(Br)c4cc3C2=O)c1`, the Potency was “inactive”.
With `COCCn1c(=O)[nH]c2cc(C(=O)N3CCN(c4ccc(OC)cc4)CC3)ccc2c1=O` the Potency was inconclusive: 63.1 µM [inhibitor, single point].
For `CC(=O)c1cccc(N2C(=O)CC(N3CCN(S(=O)(=O)c4ccc(Cl)cc4)CC3)C2=O)c1` (configuration not stated), the Potency was “inactive”.
With `Cc1nn(C)cc1C(=O)NNC(=S)Nc1ccc(Cl)cc1` the activity, negative = inhibition was inconclusive: -107% [inhibitor].
`Cc1ccc(-c2cc(C(F)F)n3ncc(C(=O)N4CCN(c5ccccn5)CC4)c3n2)cc1` was tested, and the Potency was inconclusive: 25.1 µM [inhibitor, single point].
`Cc1nc(-c2cn[nH]c2-c2ccc(O)cc2O)cs1` was tested, and the Potency was inconclusive: 39.8 µM [inhibitor, single point].
In the case of `CCOc1ccc(OCC)c(NC(=O)Nc2ccc3c(c2)N(C)C(=O)CS3)c1`, the Potency is reported as inconclusive: 3.98 µM [inhibitor, partial curve, poor fit].
